The values that follow come from patent US20180362668A1 (JIANGSU ALPHAMAB BIOPHARMACEUTICALS, published 2018).

Series [1] deals with the molecule itself. As to the kind of experiment: non-reducing SDS-PAGE densitometry of Protein A-purified co-transfection product; chain A:chain B vectors 1:4. The text has this:
(§1) The cotransfection ratio of recombinant expression vector of the chain A to that of the chain B was 4:1, 1:1 and 1:4. The transiently expressed culture supernatant was collected after 5-6 days of cultivation.

Series [2] deals with the molecule itself. The series can be described thus: non-reducing SDS-PAGE densitometry of Protein A-purified co-transfection product; chain A:chain B vectors 4:1.
Source text: as §1

Series [3] concerns the molecule itself. As to the kind of experiment: non-reducing SDS-PAGE densitometry of Protein A-purified co-transfection product; chain A:chain B vectors 1:1.
Source text: as §1

Series [4] deals with the molecule itself. As to the kind of experiment: non-reducing SDS-PAGE densitometry of Protein A-purified co-transfection product; chain A:chain B vectors 4:1. From the text: (§2) The cotransfection ratio of recombinant expression vector of the chain A to that of the chain B was 4:1, 1:1 and 1:4.
This is another data set of the same source.

Series [5] deals with the molecule itself. The series can be described thus: non-reducing SDS-PAGE densitometry of Protein A-purified co-transfection product; chain A:chain B vectors 1:1.
Source text: as §2
This is another data set of the same source.

Series [6] deals with the molecule itself. As to the kind of experiment: non-reducing SDS-PAGE densitometry of Protein A-purified co-transfection product; chain A:chain B vectors 1:4.
Source text: as §2
This is another data set of the same source.

B1: VhH-Fc fusion protein chain B with T366S + L368A + Y407V + K409A + K392D (Fc fusion)
chain: QVQLQESGGGSVQAGGSLRLSCAASEYIYSSYCMAWFRQAPGKEREGVAVIGSDGSTSYADSVKGRFTISKDNAKNTLYLQMNSLKPEDTAMYYCAAIGGYCYQPPYEYQYWGQGTQVTVSS[letters of human IgG1 Fc with C220S T366S L368A K392D Y407V K409A (EU numbers) omitted]
notes: Positions are EU index; also called combination 15 chain B
Consider B1, for which the “VhH-Fc homodimer (%)” value in series [1] worked out at 31%; in series [2], 6%; in series [3], 13%.

B2: VhH-Fc fusion protein chain B with T366S + L368A + Y407V + D399S + F405K (Fc fusion)
chain: QVQLQESGGGSVQAGGSLRLSCAASEYIYSSYCMAWFRQAPGKEREGVAVIGSDGSTSYADSVKGRFTISKDNAKNTLYLQMNSLKPEDTAMYYCAAIGGYCYQPPYEYQYWGQGTQVTVSS[letters of human IgG1 Fc with C220S T366S L368A D399S F405K Y407V (EU numbers) omitted]
notes: Positions are EU index; also called combination 10 chain B
For the protein B2, the “VhH-Fc homodimer (%)” value was less than 1% in series [4], 13% in series [5] and 27% in series [6].

B3: VhH-Fc fusion protein chain B with D356C + T366S + L368A + Y407V (Fc fusion)
chain: QVQLQESGGGSVQAGGSLRLSCAASEYIYSSYCMAWFRQAPGKEREGVAVIGSDGSTSYADSVKGRFTISKDNAKNTLYLQMNSLKPEDTAMYYCAAIGGYCYQPPYEYQYWGQGTQVTVSS[letters of human IgG1 Fc with changes omitted]
notes: Positions are EU index; also called combination 2 chain B (VhH-Fc format)
In the case of B3, the “VhH-Fc homodimer (%)” value was 61% in series [1], 17% in series [2] and 27% in series [3].

B4: VhH-Fc fusion protein chain B with D356C + T366S + L368A + Y407V + F405K (Fc fusion)
chain: QVQLQESGGGSVQAGGSLRLSCAASEYIYSSYCMAWFRQAPGKEREGVAVIGSDGSTSYADSVKGRFTISKDNAKNTLYLQMNSLKPEDTAMYYCAAIGGYCYQPPYEYQYWGQGTQVTVSS[letters of human IgG1 Fc with changes omitted]
notes: also called combination 4 chain B (VhH-Fc format)
Take B4: the “VhH-Fc homodimer (%)” value in series [4] is less than 1%; in series [5], 19%; in series [6], 53%.

B5: VhH-Fc fusion protein chain B with T366S + L368A + Y407V + K409A + E357A (Fc fusion)
chain: QVQLQESGGGSVQAGGSLRLSCAASEYIYSSYCMAWFRQAPGKEREGVAVIGSDGSTSYADSVKGRFTISKDNAKNTLYLQMNSLKPEDTAMYYCAAIGGYCYQPPYEYQYWGQGTQVTVSS[letters of human IgG1 Fc with C220S E357A T366S L368A Y407V K409A (EU numbers) omitted]
notes: Positions are EU index; also called combination 18 chain B
As to B5, the entries for the “VhH-Fc homodimer (%)” value in series [1], in series [2] and in series [3] were 9%, 10% and 7%, respectively.
